± gives the standard deviation of the averaged measurements. Restriction of a single-cycle SIVsab GFP reporter by TRIM5α v1-loop variants in CRFK cells. Human variants: read share among cells still uninfected after two challenges over input, higher = gained restriction. Rhesus variants: share among infected cells over input, higher = lost restriction. Reporter dose not given per row. No active / inactive call per row; the paper calls a change when both replicates lie above its controls (mean + 2 SD of stop or wild-type variants, or the top frameshift score). Residues outside the varied loop are taken from Swiss-Prot. The paper reads the human single-substitution scores as noise; they and the rhesus combinations repeat poorly (rank correlation 0.3 to 0.4), indel scores repeat only for the top variants, rhesus substitutions well (0.9).
Tested on: SIVsab (simian immunodeficiency virus of sabaeus monkeys), single-cycle GFP reporter, in CRFK cells
Test: enrichment among uninfected cells over input (fold); higher = stronger restriction
Protocol: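 Pools of CRFK cells expressing variants of the TRIM5α v1 loop were challenged with the single-cycle reporter, sorted by GFP and sequenced; mean of two replicates.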

[1] = library: human / rhesus combinations
[2] = library: insertions and deletions

Row | Sequence | enrichment [1] | enrichment [2]
1 | MASGILVNVKEEVTCPICLELLTQPLSLDCGHSFCQACLTANHKKSMLDKGESSCPVCRISYQPENIRPNRHVANIVEKLREVKLSPEGQKVDHCARHGEKLLLFCQEDGKVICWLCERSQEHRGHHTFLTEEVAREYQVKLQAALEMLRQKQQEAEELEADIREEKASWKTQIQYDKTNVLADFEQLRDILDWEESNELQNLEKEEEDILKSLTNSETEMVQQTQSLRELISDLEHRLQGSVMELLQGVDGVIKRTENVTLKKPETFPKNQRRVFRAPDLKGMLEVFRELTDVRRYWVDVTVAPNNISCAVISEDKRQVSSPKPQIIYGAPGTLFPTFVNFNYCTGILGSQSITSGKHYWEVDVSKKTAWILGVCAGFQPDAMCNIEKNENYQPKYGYWVIGLEEGVKCSAFQDSSFHTPSVPFIVPLSVIICPDRVGVFLDYEACTVSFFNITNHGFLIYKFSHCSFSQPVFPYLNPRKCGVPMTLCSPSS [human TRIM5α, 330-340 = GAPGTLFPTFV] | 0.00245 ± 0.0014 | –
2 | MASGILVNVKEEVTCPICLELLTQPLSLDCGHSFCQACLTANHKKSMLDKGESSCPVCRISYQPENIRPNRHVANIVEKLREVKLSPEGQKVDHCARHGEKLLLFCQEDGKVICWLCERSQEHRGHHTFLTEEVAREYQVKLQAALEMLRQKQQEAEELEADIREEKASWKTQIQYDKTNVLADFEQLRDILDWEESNELQNLEKEEEDILKSLTNSETEMVQQTQSLRELISDLEHRLQGSVMELLQGVDGVIKRTENVTLKKPETFPKNQRRVFRAPDLKGMLEVFRELTDVRRYWVDVTVAPNNISCAVISEDKRQVSSPKPQIIYGAPGTRFPSLTNFNYCTGILGSQSITSGKHYWEVDVSKKTAWILGVCAGFQPDAMCNIEKNENYQPKYGYWVIGLEEGVKCSAFQDSSFHTPSVPFIVPLSVIICPDRVGVFLDYEACTVSFFNITNHGFLIYKFSHCSFSQPVFPYLNPRKCGVPMTLCSPSS [human TRIM5α, 330-340 = GAPGTRFPSLT] | 0.295 ± 0.41 | –
3 | MASGILVNVKEEVTCPICLELLTQPLSLDCGHSFCQACLTANHKKSMLDKGESSCPVCRISYQPENIRPNRHVANIVEKLREVKLSPEGQKVDHCARHGEKLLLFCQEDGKVICWLCERSQEHRGHHTFLTEEVAREYQVKLQAALEMLRQKQQEAEELEADIREEKASWKTQIQYDKTNVLADFEQLRDILDWEESNELQNLEKEEEDILKSLTNSETEMVQQTQSLRELISDLEHRLQGSVMELLQGVDGVIKRTENVTLKKPETFPKNQRRVFRAPDLKGMLEVFRELTDVRRYWVDVTVAPNNISCAVISEDKRQVSSPKPQIIYGARGTRYQTFVNFNTGILGSQSITSGKHYWEVDVSKKTAWILGVCAGFQPDAMCNIEKNENYQPKYGYWVIGLEEGVKCSAFQDSSFHTPSVPFIVPLSVIICPDRVGVFLDYEACTVSFFNITNHGFLIYKFSHCSFSQPVFPYLNPRKCGVPMTLCSPSS [human TRIM5α, 2-codon deletion at 344] | – | 0.462 ± 0.3
4 | MASGILVNVKEEVTCPICLELLTQPLSLDCGHSFCQACLTANHKKSMLDKGESSCPVCRISYQPENIRPNRHVANIVEKLREVKLSPEGQKVDHCARHGEKLLLFCQEDGKVICWLCERSQEHRGHHTFLTEEVAREYQVKLQAALEMLRQKQQEAEELEADIREEKASWKTQIQYDKTNVLADFEQLRDILDWEESNELQNLEKEEEDILKSLTNSETEMVQQTQSLRELISDLEHRLQGSVMELLQGVDGVIKRTENVTLKKPETFPKNQRRVFRAPDLKGMLEVFRELTDVRRYWVDVTVAPNNISCAVISEDKRQVSSPKPQIIYGARGTRYQTFVNFNYCTGFNYCTGILGSQSITSGKHYWEVDVSKKTAWILGVCAGFQPDAMCNIEKNENYQPKYGYWVIGLEEGVKCSAFQDSSFHTPSVPFIVPLSVIICPDRVGVFLDYEACTVSFFNITNHGFLIYKFSHCSFSQPVFPYLNPRKCGVPMTLCSPSS [human TRIM5α, 6-codon duplication at 342] | – | 0.685 ± 0.56
